Measured values taken from paper PMC4336329 (PLoS ONE, 2015).
In all, about 310,000 compounds went through this assay and about 14,000 (4.5%) showed an effect of 50% or more. Effects have a minus sign here. The list shows a part of the results.

target: human ether-à-go-go-related gene (hERG) potassium channel (human, UniProt Q12809); test: primary screen, population patch clamp on CHO cells stably expressing hERG
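Also: peak tail current of the secondary pulse compared with the same well before compound.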

Chain of human ether-à-go-go-related gene (hERG) potassium channel (Q12809 whole entry, looked up): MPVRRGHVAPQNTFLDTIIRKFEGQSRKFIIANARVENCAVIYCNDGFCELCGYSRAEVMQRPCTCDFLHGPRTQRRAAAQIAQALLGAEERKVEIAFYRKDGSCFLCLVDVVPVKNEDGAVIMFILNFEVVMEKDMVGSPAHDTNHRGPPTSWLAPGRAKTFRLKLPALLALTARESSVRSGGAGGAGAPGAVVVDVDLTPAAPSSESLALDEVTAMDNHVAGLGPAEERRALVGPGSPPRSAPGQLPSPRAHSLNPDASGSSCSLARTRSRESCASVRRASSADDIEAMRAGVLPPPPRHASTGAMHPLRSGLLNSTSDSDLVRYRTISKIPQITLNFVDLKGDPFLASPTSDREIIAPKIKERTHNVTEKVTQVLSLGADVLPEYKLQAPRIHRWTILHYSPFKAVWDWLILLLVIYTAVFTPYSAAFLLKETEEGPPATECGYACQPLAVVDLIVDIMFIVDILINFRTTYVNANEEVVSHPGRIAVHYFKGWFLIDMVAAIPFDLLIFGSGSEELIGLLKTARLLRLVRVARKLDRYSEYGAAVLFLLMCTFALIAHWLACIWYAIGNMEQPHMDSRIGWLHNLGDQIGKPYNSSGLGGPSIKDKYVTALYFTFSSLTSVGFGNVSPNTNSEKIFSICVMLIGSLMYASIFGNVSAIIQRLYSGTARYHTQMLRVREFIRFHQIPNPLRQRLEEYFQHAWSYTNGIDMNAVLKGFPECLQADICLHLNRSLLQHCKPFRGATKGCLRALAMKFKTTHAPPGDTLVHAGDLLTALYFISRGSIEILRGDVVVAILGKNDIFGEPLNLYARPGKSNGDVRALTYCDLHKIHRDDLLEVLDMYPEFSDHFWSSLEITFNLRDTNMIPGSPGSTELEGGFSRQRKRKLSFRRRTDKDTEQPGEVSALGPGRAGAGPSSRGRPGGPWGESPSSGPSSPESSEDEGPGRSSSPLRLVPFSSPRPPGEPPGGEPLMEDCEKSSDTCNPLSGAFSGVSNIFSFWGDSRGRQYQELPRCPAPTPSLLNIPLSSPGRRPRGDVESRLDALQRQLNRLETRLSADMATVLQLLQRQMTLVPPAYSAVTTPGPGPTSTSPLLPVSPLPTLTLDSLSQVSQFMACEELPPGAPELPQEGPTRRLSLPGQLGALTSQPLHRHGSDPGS

| Structure (SMILES) | hERG current change (%, negative = inhibition) at 10uM |
| --- | --- |
| CC(=O)c1cccc(NC(=O)CNC(=O)Cc2ccccc2)c1 | 35% |
| O=C(CCC1CCCN(C(=O)c2ccsc2)C1)NCc1ccc(F)c(F)c1 (stereo not shown) | -11.4% |
| COc1cc(C2CC(=O)c3c(ccc4ccccc34)N2)ccc1O (stereo not shown) | 3.02% |
| CN(C)CCN1C(=O)c2oc3ccc(F)cc3c(=O)c2C1c1ccncc1 (stereo not shown) | -2% |
| COc1cccc(/C=N/NC(=O)CCc2ccccc2)c1 | -16.9% |
| COc1ccc(C2N(c3cc(C)on3)C(=O)C3CCCN32)cc1 (stereo not shown) | 20.5% |
| CCOC(=O)c1c(C)n(CCNC(C)=O)c2ccc(OC)cc12 | -6.42% |
| CC1CN(c2nc3ccccn3c(=O)c2/C=C(\C#N)C(=O)N2CCOCC2)CC(C)O1 (stereo not shown) | 6.63% |
| CS/C(N)=N/N=C/c1ccc2c(c1)OCO2 | 9.01% |
| COc1ccc2c(N)c(C(=O)NN)[nH]c2c1 | 2.16% |
| COc1ccc2[nH]cc(CCNC(=O)COc3ccc4ccc(=O)oc4c3)c2c1 | -3.62% |
| Cc1nc2ccc(NC(=O)c3cccs3)cc2c(=O)n1Cc1ccc(Cl)cc1 | 9.84% |
| COCCNS(=O)(=O)c1ccc2c(c1)C(=O)c1cc(S(=O)(=O)NCCOC)ccc1-2 | -20.5% |
| Cc1c(OC(C)C(=O)NCCN2CCOCC2)ccc2c3c(c(=O)oc12)CCC3 (stereo not shown) | 3.35% |
| CCO.CCOc1ccc(Cl)cc1C(c1c(C)[nH][nH]c1=O)c1c(C)[nH][nH]c1=O | 5.54% |
| COc1ccccc1C(=O)NCC(=O)OCC(=O)Nc1cccc(S(=O)(=O)N(C)C)c1 | 0.964% |
| Cc1ccc(N=Cc2c(O)c3ccccc3oc2=O)c(C)c1 | 12.5% |
| CON(C)c1nc(C2CCCCC2)c2cc(C)ccc2n1 | -19.7% |
| C[C@H](NC(=O)c1ccccc1Cl)C(=O)OCC(=O)N1CC2(C)CC1CC(C)(C)C2 (stereo partly shown) | -3.77% |
| O=C(Cc1ccc(F)cc1)Nc1c2c(nn1-c1cccc(Cl)c1)CS(=O)C2 (stereo not shown) | -12.4% |
| O=S(=O)(NCCc1ccccc1)c1ccc(-n2cnnn2)cc1 | -56.7% |
| CCN(C(=O)Nc1ccccc1)c1ccccc1 | 4.25% |
| CCN(CC)C(=O)c1ccccc1NS(=O)(=O)c1ccc(C)cc1 | -2.46% |
| COc1cc(/C=N/NC(=O)COc2c(C)cc([N+](=O)[O-])cc2C)ccc1OC(=O)c1ccccc1Br | 30.6% |
| O=c1cccc2n1CC1CC2CN(S(=O)(=O)c2cc(Cl)ccc2Cl)C1 (stereo not shown) | -33% |
| COC(=O)COc1cccc2c(=O)n(CC(=O)N3CCCc4ccccc43)ccc12 | 8.33% |
| CN(c1ccc(C(=O)N2CCOCC2)cc1[N+](=O)[O-])C1CCCCC1 | -23.1% |
| N#CCCN1CCN(C(=S)c2ccc(-c3ccc(Cl)c(Cl)c3)o2)CC1 | -14.1% |

| Structure (SMILES) | hERG current change (%, negative = inhibition) at 10uM |
| --- | --- |
| CCOc1cc(N2CCOCC2)c(OCC)cc1NC(=O)CN1C(=O)NC2(CCCCCCC2)C1=O | -63% |
| CCOC(=O)C(NC(=O)NCc1ccccc1)(OCC)C(F)(F)F (stereo not shown) | 11.2% |
| COc1cc(OC)cc(-c2nc3ccccc3c(=O)o2)c1 | 0.0946% |
| CC(C)c1ccc(N(CCc2ccccn2)C(=O)C(C)(C)C)cc1 | -5.99% |
| O=C(CCc1nnc(CCCCc2ccccc2)o1)NCc1cccc(F)c1 | -22.3% |
| COc1ccccc1C(=O)NCC(=O)N/N=C(\C)Cc1ccccc1 | 9.91% |
| COc1ccc(C(=O)CSc2nn3c(=O)c(C(C)(C)C)nnc3s2)cc1 | 5.15% |
| CC(C)C(=O)Nc1nnc(-c2ccco2)s1 | 7.71% |
| CCCc1nnc(NC(=O)CN2C(=O)C3C4C=CC(C4)C3C2=O)s1 (stereo not shown) | -10.6% |
| [O-][N+]1=c2ccc(Nc3ccccc3)cc2=NC12CCCCC2 | -26.5% |
| COc1ccccc1CN(C)c1ccc(S(=O)(=O)N2CCN(C)CC2)cn1 | -31.6% |
| O=C(C(Cc1ccccc1)NS(=O)(=O)c1ccc(F)cc1)N1CCC2(CC1)OCCO2 (stereo not shown) | -12.9% |
| CC[C@@]12C(=O)N(c3cccc(F)c3)C(=O)N1[C@H](c1cccc(C)c1)[C@@H]1C(=O)N(Cc3ccccc3)C(=O)[C@@H]12 | 0.427% |
| O=C(CSc1nnnn1-c1ccccc1)Nc1ncc2c(n1)CC(c1ccccc1)CC2=O (stereo not shown) | 14.5% |
| CC[C@H](C)[C@H](NC(N)=O)C(=O)Nc1ccccc1F | 1.36% |
| COc1ccccc1-c1nnc(SC(C)C(=O)O)n1-c1ccccc1 (stereo not shown) | 28.5% |
| CCOc1ccccc1NC=C1C(=O)OC2(CCCCC2)OC1=O | 5.07% |
| Cc1ccc(NC(=O)c2ccco2)c(NC(=O)Cc2cccs2)c1 | -2.72% |
| NC(=O)COC(=O)c1ccccc1OCc1ccccc1 | 18.3% |
| CC[C@H](C)[C@H](NC(=O)OCc1ccccc1)C(=O)OCC(=O)N(C)CC(=O)Nc1ccccc1Cl | -64.5% |
| C#CCNc1nc(C(C)C)nc2c1nnn2Cc1ccccc1F | 2.68% |
| O=C(COC(=O)c1ccccn1)Nc1c(Cl)cccc1Cl | 3.37% |
| Cc1cc(C)nc(SCc2ccc(C(=O)N/N=C/C3CCCCC3)cc2)n1 | -12.5% |
| CC1=C(C)CC(C(=O)NCCCN2CCCC2=O)C(C(=O)O)C1 (stereo not shown) | 5.98% |
| N/C(=N\OC(=O)CCCOc1ccccc1)c1cccc([N+](=O)[O-])c1 | -21.1% |
| Cc1cc(/C=N/n2c(COc3ccccc3C)nc3ccccc3c2=O)c(O)c([N+](=O)[O-])c1 | 10.7% |
| O=c1ccnc(Nc2ccc([N+](=O)[O-])cc2)[nH]1 | 3.04% |
